About 540 (0.36%) of roughly 150,000 compounds showed an effect of 50% or more. The list shows a part of the results.

Usually % Inhibition stands for the change of the read-out against control, counted positive when it falls.

In this experiment the test system is Plasmodium falciparum. Description: Primary screen in NF54 nanoGlo assay, in single point, at 2uM, 72h; a lower Z score goes with more inhibition. Type of experiment: functional, Erythrocyte. The conditions noted are these: timepoint 72 hour.
For `O=S(=O)(N1CCN(c2ccccc2)CC1)C(F)(F)c1nc2ccccc2s1`, the “% Inhibition” value was 1% and the Z score is given as -0.26.
As for `Cc1nnc(C(=O)N2CC(C)(O)C2)s1`, the “% Inhibition” value amounted to 6% and the Z score was -0.75.
Consider `O=C(c1cccc(F)c1)N1CCN(c2cnn3c(C4CC4)nnc3c2)CC1`, for which the “% Inhibition” value came to 28% and the Z score was -3.2.
In the case of `Cc1cnn(CC(=O)NCc2csc(N)n2)c1`, the “% Inhibition” value is given as -12% and the Z score turned out to be 2.3.
With `C[C@]1(C(F)(F)F)c2ccccc2CCN1C(=O)Cn1cnnn1`, the “% Inhibition” value is given as -3% and the Z score was determined as 0.55.
On to `Cc1ccc(CNC(=O)c2cccc(N3C(=O)[C@@H](C)CS3(=O)=O)c2)cc1`, for which the “% Inhibition” value is on record as -8% and the Z score is recorded as 0.98.
In the case of `CCOc1ccc(-c2cc3nc(C4CCN(C(=O)OC(C)(C)C)CC4)c(C(=O)Nc4ccc(OC(F)(F)F)cc4)cn3n2)cc1`, the “% Inhibition” value is recorded as -10% and the Z score is on record as 1.63.
Take `Cc1cc(C)cc(NC(=O)CC[C@@H]2NC(=O)N(CCc3c[nH]c4ccccc34)C2=O)c1`: the “% Inhibition” value is on record as -4% and the Z score is 0.56.
As to `NC(=O)c1ccccc1CC(=O)N1CCc2cc(-c3ccccc3)oc2C1`, the “% Inhibition” value is reported as -4% and the Z score worked out at 0.51.
On to `COc1ccc(N2C[C@@H](c3nnc(NC(=O)c4ccco4)o3)CC2=O)cc1`, for which the “% Inhibition” value is listed as -8% and the Z score was 1.26.
Take `Cc1ccc(CNC(=O)[C@]2(C)Cn3nc(C)cc3C(=O)N2c2ccc3c(c2)OCCO3)cc1`: the “% Inhibition” value is given as -1% and the Z score is on record as 0.18.
For `Cc1c(C(=O)N(C)c2ccccc2N(C)C)cnn1-c1ccncc1`, the “% Inhibition” value is -6% and the Z score was 0.65.
For the molecule `COC(=O)[C@H](NC(=O)Cn1cccn1)c1ccc2ccccc2c1`, the “% Inhibition” value was -15% and the Z score is reported as 1.73.
On to `C[C@H]1CNC(=O)CCN1Cc1c[nH]nc1-c1cccc(F)c1`, for which the “% Inhibition” value is 2% and the Z score is -0.37.
In the case of `Cc1csc(Oc2ccc(N)cc2F)n1`, the “% Inhibition” value is recorded as -12% and the Z score stood at 1.47.
Take `CCc1nc(C)c(-c2c(C#N)c(N)nc3c2N2CCC3CC2)[nH]1`: the “% Inhibition” value was -6% and the Z score was 1.
For `Cc1nc(-c2nc(C[C@H](C)N(C)C(=O)OC(C)(C)C)no2)cs1`, the “% Inhibition” value is -8% and the Z score was 1.02.
As for `CCOc1ccccc1CNC(=O)c1cccn1-c1cccnc1C`, the “% Inhibition” value was -13% and the Z score is 1.33.
With `CC1CN(CC(=O)N(C(C)C)C(C)C)CC[S+]([O-])C1` (centres undefined), the “% Inhibition” value came to 10% and the Z score is -1.26.
In the case of `CN1C[C@H]2CN(S(=O)(=O)c3cc(F)cc(F)c3)C[C@@]2(C(=O)N2CCCC2)C1`, the “% Inhibition” value is given as -10% and the Z score is listed as 1.36.
The matching figures for `COc1ccc(-c2nn([C@@H](C)C(=O)Nc3ccccc3C(F)(F)F)c(=O)c3noc(C)c23)cc1`: -2% and 0.2.
Take `CC(C)(C)CC(C)(C)NC(=O)c1ccc2nc(N3C(=O)CCC3=O)sc2c1`: the “% Inhibition” value stood at 30% and the Z score is given as -4.27.
As for `O=C(Nc1ccon1)C1CN(C(=O)c2cccs2)C1`, the “% Inhibition” value was -10% and the Z score was determined as 1.72.
In the case of `N#Cc1cnc(NC2CCCCC2CO)c(Cl)c1` (centres undefined), the “% Inhibition” value was -5% and the Z score came out at 1.
Regarding `CC[C@@H](C(=O)N1CCC2(CC1)C(=O)N(CC(=O)NCc1ccc(F)cc1)CN2c1ccccc1)c1ccccc1`, the “% Inhibition” value is -9% and the Z score is 1.79.
For `COc1ccc(C(=O)N2CCc3ccc(C(=O)NC4CCCCC4)cc32)cc1`, the “% Inhibition” value is -22% and the Z score was 3.51.
For the molecule `Cc1ccc([C@H](Cc2ccccc2)NCc2nnn(C)n2)cc1C`, the “% Inhibition” value worked out at 2% and the Z score is -0.28.
Consider `COc1cc2cc[n+](C)c(C)c2cc1OC`, for which the “% Inhibition” value is reported as -6% and the Z score worked out at 0.78.
The matching figures for `CNC(=O)N1CCC([C@H]2CCN(S(=O)(=O)c3ccc(C)c(F)c3)C2)CC1`: -12% and 1.35.
On to `N=C(N)c1ccnc(OCCc2ccccc2)c1`, for which the “% Inhibition” value was determined as 17% and the Z score is -2.3.
Consider `COc1ccc2c(c1)OCC([C@H]1Nc3ccccc3C(=O)N1CC(F)(F)F)=C2`, for which the “% Inhibition” value is recorded as -3% and the Z score worked out at 0.29.
For `CN1CCN(C(=O)c2cc(F)ccc2OCCN)[C@@H](c2ccccc2)C1`, the “% Inhibition” value is reported as -4% and the Z score turned out to be 0.74.
Take `CC[C@H]1C(=O)NCCCN1Cc1noc2c1CCCC2`: the “% Inhibition” value is recorded as -3% and the Z score amounted to 0.66.
`CN(C)[C@@H](CNC(=O)C(=O)Nc1ccon1)c1ccc2c(c1)CCO2`: the “% Inhibition” value was -5% and the Z score is reported as 0.79.
As to `Cc1nccn1C[C@H]1CCCN(C(=O)CCC(F)(F)F)C1`, the “% Inhibition” value is -9% and the Z score turned out to be 1.26.
Take `COc1cccc2c1CC[C@]2(N)C(=O)N1CCC(OC(C)C)CC1`: the “% Inhibition” value is listed as -3% and the Z score came to 0.45.
As for `CCC[C@H](NC(C)=O)C(=O)NCCn1cnc(C)c1C`, the “% Inhibition” value is -7% and the Z score worked out at 0.76.
The matching figures for `COC[C@H](O)CN1CCC(Oc2ccccn2)C1` (some centres undefined): -6% and 1.21.
In the case of `C[C@@H](c1nc2ccccc2c(=O)[nH]1)N1CCCCCCC1`, the “% Inhibition” value is recorded as 35% and the Z score is on record as -3.94.
For `CC(NC(=O)Nc1nccs1)C1CCCO1` (centres undefined), the “% Inhibition” value is 14% and the Z score is -1.89.
Regarding `CC(C1CC1)n1nccc1NC(=O)N1CCCC(OCC2CC2)C1` (centres undefined), the “% Inhibition” value is listed as -13% and the Z score is 1.06.
As for `CCC[C@@H](CNc1cncc(N(C)C)n1)N(C)C`, the “% Inhibition” value is 1% and the Z score is given as -0.2.
Regarding `CO[C@H]1COCC[C@@H]1NC(=O)Cc1cccc(C)c1`, the “% Inhibition” value worked out at 5% and the Z score is -0.74.
The matching figures for `CC(C)n1ccc(CNC(=O)[C@@H]2CN(C)C(=O)N2)n1`: -17% and 2.46.
As to `COc1ccnc(C(=O)NCC2(CN3CCN(C)CC3)CC2)c1`, the “% Inhibition” value is -7% and the Z score is on record as 1.37.
With `O=C(Nc1ccc(F)cc1)Nc1nccn(-c2ccc(F)cc2)c1=O`, the “% Inhibition” value is on record as -12% and the Z score stood at 1.61.
Consider `CC(C)c1nccn1CC(=O)N(CCC#N)c1cccc(Cl)c1`, for which the “% Inhibition” value is reported as 8% and the Z score was -0.95.
The matching figures for `O=C(CCc1nc(N2CCCCC2)c2c(-c3ccccc3)noc2n1)NCc1ccccc1Cl`: 16% and -2.52.
For `COc1ccc(NC(=O)C2=C(C)Nc3c(C(=O)Nc4cccc(C)c4)cnn3[C@H]2c2ccc(Cl)cc2)cc1`, the “% Inhibition” value turned out to be 13% and the Z score is on record as -2.26.
`CCc1ccccc1OCCN(C)Cc1cncn1CC`: the “% Inhibition” value worked out at 0% and the Z score is reported as -0.09.
For `O=C(c1ccc2[nH]c(CO)nc2c1)N1C[C@@H]2CC[C@H]1CN(Cc1cccnc1)C2`, in that order: -3% and 0.54.
In the case of `Cn1cc(Br)c(C(=O)N[C@H]2CCCOC2)cc1=O`, the “% Inhibition” value was -5% and the Z score stood at 0.8.
With `Cc1onc(C2CC2)c1C(=O)NC[C@H](C)Cn1ccnc1C`, the “% Inhibition” value was 1% and the Z score is reported as -0.17.
Consider `CCN1CCCN(C[C@H]2CN(c3ccccc3)C(=O)O2)CC1`, for which the “% Inhibition” value is recorded as -18% and the Z score came out at 2.32.
On to `Cc1ccc(NC(=O)C(C)N2CCCC3(CCOC3)C2)c(Cl)c1` (centres undefined), for which the “% Inhibition” value is -20% and the Z score is reported as 2.19.
The matching figures for `O=C(NCc1c(F)cc(F)cc1F)C12CCCN1CCC2`: -7% and 0.91.
`O=C1CC(C(=O)N2C3CCC2COC3)CN1c1ccc(F)cc1` (centres undefined): the “% Inhibition” value was -6% and the Z score came out at 0.63.
In the case of `COc1cccc(CC(=O)N2CCC3(CC2)NC(=O)c2cc(F)ccc2N3C)c1`, the “% Inhibition” value is -11% and the Z score is recorded as 1.37.
For the molecule `CC(C)(C)NC(=O)NC(=O)CN[C@H]1Cc2ccccc2O[C@@H]1C(F)(F)F`, the “% Inhibition” value is listed as -13% and the Z score is listed as 1.89.
For `Cc1nc([C@H](C)n2ccnc2C(C)C)n(-c2cccc3cccnc23)n1`, the “% Inhibition” value is on record as -2% and the Z score was found to be 0.32.
For the molecule `O=C(NCCCn1ccnc1)C1CC2CCC1C2` (centres undefined), the “% Inhibition” value is -7% and the Z score is on record as 0.91.
For the molecule `CCOc1ccc(CCNC(=O)c2ccc(CN3C(=O)CCn4nccc43)cc2)cc1OCC`, the “% Inhibition” value was found to be 16% and the Z score was -1.92.
As for `Cc1nn(C)c(C)c1NC(=O)CN1CCc2c(Cl)cc(Cl)cc2C1`, the “% Inhibition” value was determined as 0% and the Z score is recorded as -0.03.
On to `CCN1C(=O)[C@@H]2[C@H](C1=O)[C@H](C(=O)OC)N[C@@H]2c1ccccc1C(F)(F)F`, for which the “% Inhibition” value is 3% and the Z score was -0.57.
As for `CC[C@@]12CCCN1C(=O)N(Cc1cccc(CNC(C)=O)c1)C2=O`, the “% Inhibition” value was -6% and the Z score amounted to 0.75.
As for `CN(C)S(=O)(=O)c1ccc2c(c1)CCN2C(=O)[C@@H]1Cc2ccccc2O1`, the “% Inhibition” value is reported as 3% and the Z score is -0.43.
For the molecule `CCS(=O)(=O)N1CCCN(c2ccc(=O)n(-c3ccc(C)c(C)c3)n2)CC1`, the “% Inhibition” value was -1% and the Z score is listed as 0.11.
On to `Cn1cncc1-c1ccc(S(=O)(=O)N2CCCCC2)cc1`, for which the “% Inhibition” value is -18% and the Z score was found to be 1.65.
For `Cc1cc(C)c(CN(C)Cc2nncn2C)c(C)c1CO`, in that order: -1% and 0.11.
Consider `CCc1ccccc1OCCN1CC[C@]2(O)CCN(C(=O)C3CCCC3)C[C@@H]2C1`, for which the “% Inhibition” value turned out to be 4% and the Z score is listed as -0.85.
The matching figures for `Cc1ccc(O[C@H]2CCOC[C@H]2NC(=O)CCN2CCCCO2)cn1`: -1% and 0.17.
As to `O=C(Cc1cccs1)Nc1ncc(Cc2ccccc2)s1`, the “% Inhibition” value was determined as 36% and the Z score was -0.8.
The matching figures for `CC(C)c1ccc(-c2cc3c4nn(Cc5cc(F)cc(F)c5)c(=O)n4ccn3n2)cc1`: 30% and -3.92.
With `C[C@@H](c1nc2cc(Cl)ccc2c(=O)n1C)N(C)C(=O)C(c1ccccc1)c1ccccc1`, the “% Inhibition” value is reported as -1% and the Z score stood at 0.09.
Take `O=C1N[C@]2(CCc3ccccc3C2)C(=O)N1CC1CCCCCC1`: the “% Inhibition” value is given as -5% and the Z score was 0.61.
In the case of `CC(=O)N1CCC[C@H]1C(=O)N1CCC(C(Cc2ccc(F)cc2F)N(C)C(=O)c2cccnc2)CC1` (some centres undefined), the “% Inhibition” value is reported as 14% and the Z score is reported as -1.79.
`CN(Cc1nnc2n1CCC2)C(=O)CCC(=O)c1ccc(Cl)cc1`: the “% Inhibition” value was -10% and the Z score was 0.91.
For `Cc1nsc(C)c1Cn1cnc2c(cnn2C)c1=O`, in that order: 1% and -0.12.
Regarding `Cc1n[nH]c(-n2cnnc2)c1NC(=O)c1cccs1`, the “% Inhibition” value was 28% and the Z score was -3.74.
In the case of `O=C(Nc1ccc(N2CCN(c3ccccc3F)CC2)c(S(=O)(=O)NCc2ccc3c(c2)OCO3)c1)C1CCCCC1`, the “% Inhibition” value was 2% and the Z score is -0.33.
Turning to `CCN(CC)c1ccc(C(=O)N(C)c2c(C)noc2C)c(O)c1`, the “% Inhibition” value is 4% and the Z score is reported as -0.53.
For `COc1c(C(=O)N2CCC(Cn3nc(C)cc3C)CC2)c(C)nn1C`, the “% Inhibition” value worked out at 5% and the Z score is reported as -0.58.

Source of the values: ChEMBL document CHEMBL4888484, “Replenishing the malaria drug discovery pipeline: Screening and hit evaluation of the MMV Hit Generation Library 1 (HGL1) against asexual blood stage Plasmodium falciparum ,using a nano luciferase reporter read-out” (2022).
